Measurements published in ChEMBL document CHEMBL4888484, “Replenishing the malaria drug discovery pipeline: Screening and hit evaluation of the MMV Hit Generation Library 1 (HGL1) against asexual blood stage Plasmodium falciparum ,using a nano luciferase reporter read-out” (2022).
Out of some 150,000 compounds screened, about 540 (0.36%) showed an effect of 50% or more. The list shows a part of the results.

test system: Plasmodium falciparum; assay: Primary screen in NF54 nanoGlo assay, in single point, at 2uM, 72h; a lower Z score goes with more inhibition; format: functional, Erythrocyte; conditions: timepoint 72 hour

Structure (SMILES)	% Inhibition [%]	Z score
CC(C)c1cc(-n2c(Cl)cncc2=O)ncn1	-15	1.42
COc1ccc(C(=O)NC(Cc2ccc(F)cc2)Cc2ccc(F)cc2)cc1	-4	0.75
CCNC(=O)C1CC(c2cccc(OC)c2)NS(=O)(=O)N1C (stereo unspecified)	-23	2.04
CCc1nc(N(CCC(=O)N2CCN(CC)CC2)Cc2ccccc2)c2ccc(Cl)cc2n1	-1	0.13
COc1ccccc1CNC(=O)N1CCC[C@H]1c1ccc(O)cc1	-11	1.46
O=C(O)[C@@H]1CCN(Cc2ccccc2)C[C@@H]1c1ccccc1	-28	3.34
COc1ccc(CNC(=O)c2nnn(Cc3nc(-c4ccc(C)cc4)oc3C)c2N)cc1OC	-12	1.81
CCOc1cccc(CN2C(=O)C(C)C(C)C2=O)n1 (stereo unspecified)	-12	1.66
Cc1nn(C)c2ncc(-c3cc(C(F)(F)F)nn3C)cc12	-5	0.94
COc1ccc(CN2CCN(c3cc(Oc4ccc(Cl)cc4)ncn3)C[C@@H]2C)c(OC)c1	-5	0.6
CCS(=O)(=O)N1C[C@@H]2CN(C(=O)c3sc(C)nc3C)C[C@]2(c2nc(C)no2)C1	-6	0.76
O=C(CCN(CCCN1CCOCC1)c1nc(-c2ccccc2Cl)nc2ccccc12)NCCN1CCOCC1	-7	0.79
COC(=O)C[C@H](N)c1cccc(C)c1C	-8	1.54
CC(C)c1ccc(NC(=O)c2cn(Cc3ccc(NC(=O)c4cccc(F)c4)cc3)cn2)cc1	0	0.05
COCCC(C)(C)C(=O)N1CCC(OC[C@H]2CCCO2)CC1	1	-0.15
CC(C)c1nnc(N[C@H]2C[C@@H](c3cc(=O)[nH]c(N4CCCC4)n3)C2)s1	13	-1.24
C[C@@H](C1CC1)N(C)C(=O)NCCS(=O)(=O)C(C)(C)C	-42	4.94
CCn1nccc1C(=O)N1CCN(Cc2cc(C)cc(C)c2)C(=O)C1	-2	0.21
COc1ccc(CN2C[C@@H](COc3cccc(F)c3)C[C@@H](C(=O)NCCN(C)C)C2)cc1OC	-8	0.88
Cc1cc(S(=O)(=O)[C@H]2CS(=O)(=O)C[C@@H]2NCc2ccncc2)ccc1F	-1	0.14
Fc1ccc(C2(CNCc3ncc[nH]3)CC2)c(Cl)c1	2	-0.26
O=C(c1c(O)cccc1OC(F)(F)F)N1CCO[C@H]2CCC[C@H]21	0	-0.04
CCC1CN(CC2CCCN(S(C)(=O)=O)C2)CCO1 (stereo unspecified)	-8	0.97
CC(=O)Nc1nonc1NC(=O)c1ccc(C)c(NC(=O)[C@@H]2CCCO2)c1	-5	0.64
CCCCN(CCNc1ncnc2onc(C)c12)Cc1ccco1	0	0.01
O=C(NCCN1C(=O)CCCC1=O)c1cc(F)c(F)c(F)c1	-4	0.82
CCCN(C)c1nccn2c(=O)n(CC(=O)Nc3ccc(OC)c(Cl)c3)nc12	-6	0.81

Structure (SMILES)	% Inhibition [%]	Z score
CC1=NN(c2cnn(C)c2)C(=O)[C@@H](C)C1	-1	0.28
Cc1ccc(C)c(S(=O)(=O)NC[C@](C)(O)C(=O)OC(C)(C)C)c1	-4	0.67
CO[C@H]1C[C@@H](O)C12CCN(Cc1[nH]cc(C)c(=O)c1C)CC2	-4	0.81
Cc1ccc(S(=O)(=O)N(c2ccccc2)C2CCN(Cc3ccccc3F)CC2)cc1	-4	0.34
CCN1CCN(c2c(CN(C(=O)NC(C)(C)C)C3CC3)c(C)nn2-c2cccc(F)c2)CC1	5	-0.65
CC(C)[C@H]1C(=O)NCCN1Cc1ccc(N(C)C)nc1	-8	1.63
CC(=O)N1CCCC1C1CCCN1C(C)c1ccc(F)cc1F (stereo unspecified)	-13	2.1
CCOc1ccc2c(c1)c(=O)c1cccnc1n2CC(=O)Nc1ccccc1Cl	-22	3.79
Cc1cc(CN2C(=O)N[C@@]3(CCCCc4ccccc43)C2=O)no1	33	-0.54
C#CCOC[C@@H](O)CN(Cc1c(-c2ccccc2)nn(C)c1Oc1ccc(C)cc1)C1CC1	10	-1
N[C@@H](CCOc1ccccc1)c1ccc(F)cc1	-9	1.1
CCC1(CNC(=O)N[C@@H](C)c2nc[nH]n2)CCN(Cc2ccccc2)CC1	-6	1.07
CN(Cc1ccccc1N1CCOCC1)c1ccccc1C#N	-8	1.33
O=C(Cc1cccc(F)c1)N1CCOCC12CCCCC2	2	-0.37
O=C(CCc1ccc(O)cc1)N1C[C@H]2CC[C@@H](C1)N(Cc1ccccc1)C2=O	1	-0.17
CCOC(=O)N1CCN(C(=O)Cn2cccc(OC)c2=O)CC1	-14	2.19
N#Cc1ccc(OCCNC(=O)N[C@H]2CCCC23CCOCC3)cc1	-17	1.73
COc1ccc(CCNC(N)=NCC2CC2)cc1	-14	1.61
CN(C)c1ccc(C2C(S(=O)(=O)N(C)C3CCCCC3)CON2C)cc1 (stereo unspecified)	-5	0.45
CN(C)Cc1csc(CN2CCc3[nH]nc(CO)c3C2)c1	-10	1.96
O=S(=O)(c1ccc(Oc2ccc(Br)cc2Br)nc1)N1CCCCC1	-8	1.09
CC(C)C(=O)NCC(=O)N1CCC[C@@]2(CCC(=O)N(Cc3ccccn3)C2)C1	2	-0.3
CCCCC(C)C(=O)N1CC(O)CC1CO (stereo unspecified)	12	-1.33
COc1ccccc1C(=O)N(Cc1cccs1)c1ccc(C)c(Cl)c1	36	-4.8
O=C(Nc1ccccc1Br)N1CCN(c2nc3cc(F)ccc3n3cccc23)CC1	0	-0.01
COc1ccc2c(c1)CCN(Cc1cc(O)n3nc(C)nc3n1)C2	-9	1.65
